# According to the supplement of paper PMC8728848:
# The other results are listed elsewhere or left out.
# B1: AFL5 (Aspergillus fumigatus), Q4WB00 (protein)
# chain: MDNFMEMTKKLGHQPELLRLRALDATYDDALEGKLVVAPLDMSEPGKKILDSGTADGTWLRNVRSKQSVPHDYYGSDVEGELFPKDPDGITYFAHSFKDPWPQQYLGFFDLVHIRGSLAGSAPEGPAPVIQNLTTLLKPGGWVQLMEMNAFSPPPNGPAMTDFAKMASEMFTGIGVGDFANNNKSMLEDAGLKNVQEKRVIVNLGKKAKPELHDQSIHGVTGPIVPLTSVARTVKSSFTGEQLDALPARVKEELETEGGQVEMIIAFGQKA
# Columns and labels:
# Test in all cases: glycan array binding signal (z-score within array); higher = stronger binding
# Conditions in all cases: glycan notation: IUPAC condensed, linker removed
# [1] = biological target: Fuc(a1-2)Gal(b1-4)GlcNAc(b1-3)Gal(b1-4)GlcNAc(b1-2)Man(a1-3)[Fuc(a1-2)Gal(b1-4)GlcNAc(b1-3)Gal(b1-4)GlcNAc(b1-2)Man(a1-6)]Man(b1-4)GlcNAc(b1-4)GlcNAc
# Method in brief: (§1)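 The binding signal is a Z-score computed within each array. Data were drawn from 3228 arrays in the Consortium for Functional Glycomics database, restricted to those with a known protein sequence. Scores were averaged over arrays of the same protein sequence at different concentrations or buffers, and over linkers, and negative values can be taken as non-binding.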
# [2] = biological target: Fuc(a1-2)Gal(b1-4)GlcNAc(b1-3)Gal(b1-4)GlcNAc(b1-3)Gal(b1-4)GlcNAc
# Method in brief: as §1
# [3] = biological target: Fuc(a1-2)Gal(b1-4)GlcNAc(b1-3)GalNAc
# Method in brief: as §1
# [4] = biological target: Fuc(a1-2)Gal(b1-4)GlcNAc(b1-3)[Fuc(a1-2)Gal(b1-4)GlcNAc(b1-6)]GalNAc
# Method in brief: as §1
# [5] = biological target: Fuc(a1-2)Gal(b1-4)GlcNAc(b1-3)[Fuc(a1-3)[Gal(b1-4)]GlcNAc(b1-6)]Gal(b1-4)Glc
# Method in brief: as §1
# [6] = biological target: Fuc(a1-2)Gal(b1-4)GlcNAc(b1-6)GalNAc
# Method in brief: as §1
# [7] = biological target: Fuc(a1-2)Gal(b1-4)GlcNAc6S
# Method in brief: as §1
# [8] = biological target: Fuc(a1-2)Gal(b1-4)[Fuc(a1-3)]GlcNAc
# Method in brief: as §1
# [9] = biological target: Fuc(a1-2)Gal(b1-4)[Fuc(a1-3)]GlcNAc(b1-2)Man(a1-3)[Fuc(a1-2)Gal(b1-4)[Fuc(a1-3)]GlcNAc(b1-2)Man(a1-6)]Man(b1-4)GlcNAc(b1-4)[Fuc(a1-6)]GlcNAc
# Method in brief: as §1
# [10] = biological target: Fuc(a1-2)Gal(b1-4)[Fuc(a1-3)]GlcNAc(b1-2)[Fuc(a1-2)Gal(b1-4)[Fuc(a1-3)]GlcNAc(b1-4)]Man(a1-3)[Fuc(a1-2)Gal(b1-4)[Fuc(a1-3)]GlcNAc(b1-2)Man(a1-6)]Man(b1-4)GlcNAc(b1-4)GlcNAc
# Method in brief: as §1
# [11] = biological target: Fuc(a1-2)Gal(b1-4)[Fuc(a1-3)]GlcNAc(b1-3)Gal(b1-4)[Fuc(a1-3)]GlcNAc
# Method in brief: as §1
# [12] = biological target: Fuc(a1-2)Gal(b1-4)[Fuc(a1-3)]GlcNAc(b1-3)Gal(b1-4)[Fuc(a1-3)]GlcNAc(b1-3)Gal(b1-4)[Fuc(a1-3)]GlcNAc
# Method in brief: as §1
# [13] = biological target: Fuc(a1-2)Gal(b1-4)[Fuc(a1-3)]GlcNAc(b1-3)GalNAc
# Method in brief: as §1
# [14] = biological target: Fuc(a1-2)Gal(b1-4)[Fuc(a1-3)]GlcNAc(b1-3)[Neu5Ac(a2-6)Gal(b1-4)GlcNAc(b1-6)]Gal(b1-4)Glc
# Method in brief: as §1
# [15] = biological target: Fuc(a1-2)Gal3S(b1-4)GlcNAc
# Method in brief: as §1
# [16] = biological target: Fuc(a1-2)Gal6S(b1-3)GlcNAc
# Method in brief: as §1
# [17] = biological target: Fuc(a1-2)Gal6S(b1-3)GlcNAc6S
# Method in brief: as §1
# [18] = biological target: Fuc(a1-2)Gal6S(b1-4)Glc
# Method in brief: as §1
# [19] = biological target: Fuc(a1-2)Gal6S(b1-4)Glc6S
# Method in brief: as §1
# [20] = biological target: Fuc(a1-2)[Gal(a1-3)]Gal
# Method in brief: as §1
# [21] = biological target: Fuc(a1-2)[Gal(a1-3)]Gal(b1-3)GalNAc
# Method in brief: as §1
# [22] = biological target: Fuc(a1-2)[Gal(a1-3)]Gal(b1-3)GalNAc(b1-3)Gal(a1-4)Gal(b1-4)Glc
# Method in brief: as §1
# [23] = biological target: Fuc(a1-2)[Gal(a1-3)]Gal(b1-3)GlcNAc
# Method in brief: as §1
# [24] = biological target: Fuc(a1-2)[Gal(a1-3)]Gal(b1-3)GlcNAc(b1-2)Man(a1-3)[Fuc(a1-2)[Gal(a1-3)]Gal(b1-3)GlcNAc(b1-2)Man(a1-6)]Man(b1-4)GlcNAc(b1-4)GlcNAc
# Method in brief: as §1
# [25] = biological target: Fuc(a1-2)[Gal(a1-3)]Gal(b1-3)GlcNAc(b1-2)Man(a1-3)[Fuc(a1-2)[Gal(a1-3)]Gal(b1-3)GlcNAc(b1-2)Man(a1-6)]Man(b1-4)GlcNAc(b1-4)[Fuc(a1-6)]GlcNAc
# Method in brief: as §1
# [26] = biological target: Fuc(a1-2)[Gal(a1-3)]Gal(b1-3)GlcNAc(b1-3)GalNAc
# Method in brief: as §1
# [27] = biological target: Fuc(a1-2)[Gal(a1-3)]Gal(b1-3)GlcNAc(b1-6)GalNAc
# Method in brief: as §1
# [28] = biological target: Fuc(a1-2)[Gal(a1-3)]Gal(b1-4)Glc
# Method in brief: as §1
# [29] = biological target: Fuc(a1-2)[Gal(a1-3)]Gal(b1-4)GlcNAc
# Method in brief: as §1
# [30] = biological target: Fuc(a1-2)[Gal(a1-3)]Gal(b1-4)GlcNAc(b1-2)Man
# Method in brief: as §1
binder,measurement,setting,value
B1,glycan array binding signal (z-score),[1],0.907
same,glycan array binding signal (z-score),[2],0.549
same,glycan array binding signal (z-score),[3],-0.06
same,glycan array binding signal (z-score),[4],-0.019
same,glycan array binding signal (z-score),[5],-0.495
same,glycan array binding signal (z-score),[6],-0.782
same,glycan array binding signal (z-score),[7],-0.467
same,glycan array binding signal (z-score),[8],-0.295
same,glycan array binding signal (z-score),[9],0.182
same,glycan array binding signal (z-score),[10],-0.006
same,glycan array binding signal (z-score),[11],-0.442
same,glycan array binding signal (z-score),[12],-0.555
same,glycan array binding signal (z-score),[13],0.141
same,glycan array binding signal (z-score),[14],-0.22
same,glycan array binding signal (z-score),[15],-0.47
same,glycan array binding signal (z-score),[16],0.028
same,glycan array binding signal (z-score),[17],0.732
same,glycan array binding signal (z-score),[18],0.138
same,glycan array binding signal (z-score),[19],-0.286
same,glycan array binding signal (z-score),[20],0.028
same,glycan array binding signal (z-score),[21],-0.145
same,glycan array binding signal (z-score),[22],-0.062
same,glycan array binding signal (z-score),[23],-0.252
same,glycan array binding signal (z-score),[24],0.4
same,glycan array binding signal (z-score),[25],-0.194
same,glycan array binding signal (z-score),[26],0.302
same,glycan array binding signal (z-score),[27],-0.151
same,glycan array binding signal (z-score),[28],-0.09
same,glycan array binding signal (z-score),[29],-0.456
same,glycan array binding signal (z-score),[30],0.14
